PubChem BioAssay AID1460 (National Center for Advancing Translational Sciences (NCATS), 2008)
In all, about 270,000 compounds went through this assay and about 5,800 (2.1%) were called active. Inconclusive results, whose numbers are uncertain, are shown with a selection of clear calls. Calls come from the whole dose curve; as a rule, active = well fitted inhibition curve with a large enough effect; inconclusive = small, poorly fitted or top-dose-only effect; inactive = flat fitted curve, though single readings scatter. Potencies beside an inconclusive call are fits to weak or partial responses and may not hold up.

Molecular target: Microtubule-associated protein tau (Homo sapiens) (UniProt P10636)
UniProt P10636, sequence (P10636 whole entry, looked up): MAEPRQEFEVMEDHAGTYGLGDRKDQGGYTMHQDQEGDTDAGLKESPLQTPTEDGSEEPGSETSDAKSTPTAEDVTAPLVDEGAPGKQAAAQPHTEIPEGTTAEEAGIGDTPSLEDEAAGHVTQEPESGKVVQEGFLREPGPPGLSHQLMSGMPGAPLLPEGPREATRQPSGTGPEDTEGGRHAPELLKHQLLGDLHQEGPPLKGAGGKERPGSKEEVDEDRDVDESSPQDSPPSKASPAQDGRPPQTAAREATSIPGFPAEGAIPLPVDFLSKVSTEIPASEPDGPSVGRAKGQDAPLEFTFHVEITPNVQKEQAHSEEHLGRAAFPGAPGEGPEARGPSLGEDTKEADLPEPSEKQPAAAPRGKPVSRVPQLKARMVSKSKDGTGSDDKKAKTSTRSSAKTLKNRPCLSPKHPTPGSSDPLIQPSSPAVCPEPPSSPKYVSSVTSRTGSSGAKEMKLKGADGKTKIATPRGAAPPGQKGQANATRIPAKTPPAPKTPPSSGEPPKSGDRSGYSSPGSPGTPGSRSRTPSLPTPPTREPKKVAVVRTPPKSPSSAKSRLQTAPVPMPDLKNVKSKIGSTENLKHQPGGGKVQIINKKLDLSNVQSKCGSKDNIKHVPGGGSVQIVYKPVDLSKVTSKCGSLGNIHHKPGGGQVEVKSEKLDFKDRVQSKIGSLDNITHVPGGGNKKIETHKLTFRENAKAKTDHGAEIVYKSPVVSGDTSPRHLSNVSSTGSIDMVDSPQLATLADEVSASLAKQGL
Test: qHTS for Inhibitors of Tau Fibril Formation, Thioflavin T Binding; note: nearly all actives have a fitted effect of over 55% in size
Settings: recombinant tau K18 P301L (four-repeat tau fragment), heparin-induced fibrillization, ThT fluorescence; series mostly up to 57.4 µM
Outline: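 Aggregation was driven by heparin (20 uM final) acting on recombinant tau […] bearing P301L in 100 mM sodium acetate pH 7; fibrils were detected with Thioflavin T.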
Potency is the fitted concentration of half-maximal effect; tags give direction and shape of the fitted curve.

| Compound | Potency |
| --- | --- |
| CCN(C(=O)Cn1c(=O)n(-c2ccccc2)c(=O)c2ccc(C(=O)NCc3ccc4c(c3)OCO4)cc21)c1cccc(C)c1 | inactive |
| COCc1cc(C)nc(SCC(=O)Oc2ccc(Cl)cc2)c1C#N | inconclusive: 7.94 µM [inhibitor, partial curve] |
| CC(C)Cc1csc(NC(=O)c2ccc(Cl)cc2)c1C(=O)O | inconclusive: 22.4 µM [inhibitor, partial curve] |
| Cc1cccc(NCc2ccc(O)c3ncccc23)c1 | inconclusive: 15.8 µM [inhibitor, partial curve] |
| O=C(CSc1n[nH]c(-c2ccccc2Cl)n1)NCc1ccc(F)cc1 | inactive |
| Cc1cccc(C)c1NC(=S)NC1CCCCC1 | inactive |
| CCc1ccc2[nH]c(=O)c(C(c3nnnn3CCOC)N3CCN(c4ccc(F)cc4)CC3)cc2c1 (configuration not stated) | inconclusive: 14.1 µM [inhibitor, single point] |
| Cc1ccc(-c2nc(C#N)c(N3CCCCC3)o2)cc1 | inconclusive: 25.1 µM [inhibitor, partial curve] |
| Cc1ccc(OC(=S)Nc2ccc(F)cc2)cc1 | inactive |
| Cc1cc(SCC(=O)N/N=C/c2ccc(O)c(O)c2O)c(C)cc1Br | active: 7.94 µM |
| O=C(c1noc2c1CCc1ccccc1-2)N1CCOCC1 | inactive |
| CO/N=C\Cc1oc(=O)c(NC(=O)c2ccccc2)cc1C(=O)OC | inconclusive: 14.1 µM [inhibitor, partial curve] |
| Clc1ccc2nc(NC3=NCN(CCN4CCOCC4)CN3)nc(-c3ccccc3)c2c1 | inconclusive: 28.2 µM [inhibitor, single point] |
| O=C(Nc1nc2cc3c(cc2s1)OCCO3)C1=COCCO1 | inconclusive: 31.6 µM [inhibitor, partial curve] |
| COc1ccc2nc(Nc3nc(CSc4nnnn4-c4ccccc4)cc(=O)[nH]3)nc(C)c2c1 | inconclusive: 2.51 µM [inhibitor, full curve] |
| CCCCCN=Cc1c(C)[nH]n(-c2nc3ccccc3s2)c1=O | inconclusive: 22.4 µM [inhibitor, partial curve] |
| COc1ccc(/C=N/Nc2nc(-c3ccc(Cl)cc3)cc(C(F)(F)F)n2)c(OC)c1 | inconclusive: 7.94 µM [inhibitor, partial curve] |
| Cc1ccc(/C=N/N=C2/NC(=O)C(CC(=O)Nc3ccc(Cl)cc3)S2)o1 (configuration not stated) | inactive |
| O=C(Oc1ccccc1/C=C\C(=O)c1cc2ccccc2o1)c1ccccc1 | inconclusive: 15.8 µM [inhibitor, partial curve] |
| O=C(NCCc1ccc(Cl)cc1)C1CCC(CNc2c(N3CCCCC3)c(=O)c2=O)CC1 (configuration not stated) | inactive |
| Cc1c(C(=O)Nc2ccc(OC(F)(F)F)cc2)sc2nc3n(c(=O)c12)CCC3 | inconclusive: 17.8 µM [inhibitor, partial curve] |
| COC(=O)c1sc2nc(C)cc(C)c2c1N | inactive |
| COc1cc(-c2nnc(SCC(=O)c3cc(C)n(CC4CCCO4)c3C)o2)cc(OC)c1OC (configuration not stated) | inconclusive: 14.1 µM [inhibitor, single point] |
| O=C(CSc1nc2ccc(N3CCOCC3)cc2c(=O)n1CCc1ccccc1)NCC1CCCO1 (configuration not stated) | inconclusive: 20 µM [inhibitor, partial curve] |

| Compound | Potency |
| --- | --- |
| Cc1cccc(C(c2c(C)nn(-c3ccccc3)c2N)c2c(C)nn(-c3ccccc3)c2N)c1 | inconclusive: 28.2 µM [inhibitor, single point] |
| CC(C)N(C(=O)CN(C#N)c1nc(N(C)C)nc(N(C)C)n1)c1ccccc1 | inactive |
| COc1ccc(NC(=O)CN(c2cc(C)cc(C)c2)S(=O)(=O)c2c(C)noc2C)cc1 | inconclusive: 39.8 µM [inhibitor, single point] |
| N#Cc1c(N)sc(=S)c2c1CCN(Cc1ccccc1)C2 | active: 1.26 µM |
| CC1=NN2C(=N)/C(=C\c3cc(C)n(-c4cccc(C)c4)c3C)C(=O)N=C2S1 | inconclusive: 0.0794 µM [inhibitor, full curve, poor fit] |
| Cc1ccc(-c2csc(-c3cc4c([nH]c3=O)CC(c3ccccc3)CC4=O)n2)cc1 (configuration not stated) | inconclusive: 2.24 µM [inhibitor, partial curve, poor fit] |
| CC1CCCN(c2nc3c(-c4ccc(Cl)cc4)nnn3c3ccccc23)C1 (configuration not stated) | inactive |
| O=C(NCCCN1CCN(c2cccc(Cl)c2)CC1)c1sc2ncccc2c1-n1cccc1 | inconclusive: 39.8 µM [inhibitor, single point] |
| Cc1[nH]c2ccccc2c1SCC(=O)O | inconclusive: 31.6 µM [inhibitor, single point] |
| OC[C@@H](O)[C@H](O)C(/C=N/Nc1ccccc1)=N\Nc1ccccc1 | active: 28.2 µM |
| CCC(=O)Oc1c(Sc2ccc(Cl)cc2)c(C)nn1-c1ccccc1 | active: 22.4 µM |
| Cc1ccc(Cl)cc1N1CCN(C(=O)Cn2ncc3c4ccccc4n(C)c3c2=O)CC1 | inconclusive: 10 µM [inhibitor, partial curve, poor fit] |
| CC(=O)Nc1ccc(-c2nnc(SCC(=O)Nc3ccc4c(c3)oc3ccccc34)n2C)cc1 | inconclusive: 2.51 µM [inhibitor, partial curve] |
| COc1ccc(CNC(=O)c2ccc3c(=O)n(CCCN4CCCC4=O)c(=S)[nH]c3c2)cc1 | inactive |
| COc1ccc2[nH]c3c(NCCN(C(C)C)C(C)C)ncnc3c2c1 | inactive |
| COc1ccc(N/C=C\C(=O)c2ccc(Br)cc2)cc1OC | active: 3.16 µM |
| C#CCSc1nnnn1-c1ccc(OCC)cc1 | inconclusive: 0.0708 µM [inhibitor, full curve, poor fit] |
| NC(=O)c1c(NC(=O)CS(=O)(=O)c2ccc(Cl)cc2)sc2c1CCCCC2 | inconclusive: 20 µM [inhibitor, partial curve, poor fit] |
| O=C(C1CCN(c2ncnc3c2sc2cccc(F)c23)CC1)N1CCCC1 | inconclusive: 15.8 µM [inhibitor, partial curve] |
| CC(=O)/C(=N\Nc1ccc(Cl)cc1)Sc1nnc(-c2ccccc2)n1-c1ccccc1 | inactive |
| COc1cccc(OCc2nc(-c3ccc(Br)o3)no2)c1 | inconclusive: 11.2 µM [inhibitor, single point] |
| CCc1ccc(-c2nc(CSCC(=O)NCc3ccco3)c(C)o2)cc1 | inconclusive: 20 µM [inhibitor, partial curve] |
| COc1ccccc1-n1c(C)c2c(OC)cccc(=O)c2c1C | inconclusive: 28.2 µM [inhibitor, partial curve] |
| CC(=O)c1cc(F)c(N2CCN(C(=O)COc3ccccc3F)CC2)cc1C | inconclusive: 39.8 µM [inhibitor, partial curve, poor fit] |

| Compound | Potency |
| --- | --- |
| COc1cccc(CN2C(=O)c3ccccc3Sc3ccc(C(=O)OCc4ccco4)cc32)c1 | inactive |
| CCOc1cc(C(c2c(C)[nH][nH]c2=O)c2c(C)[nH][nH]c2=O)ccc1OC(=O)c1cccc([N+](=O)[O-])c1 | inconclusive: 28.2 µM [inhibitor, partial curve] |
| COc1ccc(COc2cc(-c3cccc(OC)c3)nc3ccc(NC(=O)c4ccc(N(C)C)cc4)cc23)cc1 | inconclusive: 5.62 µM [inhibitor, partial curve] |
| CCOC(=O)/C(C#N)=C1/C=CN(Cc2ccccc2)C=N1 | inactive |
| COc1ccc(OCC(=O)O/N=C(\N)c2ccc(OC)c(OC)c2)cc1 | inconclusive: 2.51 µM [inhibitor, full curve] |
| CC(Oc1ccccc1)C(=O)Nc1ccc(S(=O)(=O)NCC2CCCO2)cc1 (configuration not stated) | inactive |
| CCC(=O)OCCNc1cc(Sc2nc3ccccc3s2)c2nonc2c1[N+](=O)[O-] | active: 7.94 µM |
| Cc1ccc(-c2ccc(/C=N/c3ncn[nH]3)o2)cc1Cl | inactive |
| O=C(Nc1nc2c(s1)CCCC2=O)c1cnccn1 | inactive |
| COc1ccc(-c2cc(C(=O)N3CCOCC3)c3cc(C)ccc3n2)cc1 | inactive |
| CCn1c(/C=N/Nc2ccc(C(=O)O)cc2)nc2ccccc21 | inconclusive: 15.8 µM [inhibitor, partial curve] |
| CC(=O)C1=C(C)NC(=S)NC1c1cc([N+](=O)[O-])ccc1O (configuration not stated) | inactive |
| COC(=O)c1cc(NC(=O)c2nccnc2C(=O)O)cc(C(=O)OC)c1 | inactive |
| CCOc1ccc(CC(=O)NCCc2sc3nc(-c4ccc(F)cc4)nn3c2C)cc1 | inactive |
| O=C(c1ccc(COc2ccccc2Cl)o1)N1CCN(c2ccccc2)CC1 | inconclusive: 14.1 µM [inhibitor, partial curve] |
| CCNC(=S)NNC(=O)c1cc(-c2ccccc2C)nc2ccccc12 | inactive |
| COc1cc(NC(=O)c2cccs2)c(OC)cc1NC(=O)c1ccco1 | inactive |
| Cc1cc(C)c(S(=O)(=O)N2CCCOC2CNC(=O)C(=O)NCc2cccs2)c(C)c1 (configuration not stated) | inconclusive: 39.8 µM [inhibitor, single point] |
| O=C(CSC1=NC(=O)C(Cc2ccccc2)C(=O)N1)Nc1ncc(Br)cc1Br (configuration not stated) | inconclusive: 39.8 µM [inhibitor, single point] |
| CCN(CC)c1ccc(/C=N/N2CCN(Cc3ccccc3)CC2)cc1 | inconclusive: 25.1 µM [inhibitor, partial curve] |
| CCc1ccc(NC(=O)CSc2nccn2-c2ccc(F)cc2)cc1 | inactive |
| COc1ccc2c(Cl)c(C(=O)N/N=C/c3c(C)[nH]c4ccccc34)sc2c1 | active: 4.47 µM |
| COc1cccc(C2Nc3ccccc3C(=O)N2O)c1O (configuration not stated) | inactive |
| O=C(NCCN1C(=O)S/C(=C\c2cccs2)C1=O)c1ccc(=O)[nH]c1 | inconclusive: 0.447 µM [inhibitor, full curve] |
